Reference: PubChem BioAssay (NCATS)
“And” between values parts separate entries of the source, which are not always exact repeats. Equal entries are not always repeated. The inconclusive results got no clear call from the source; some entries with a clear call stand among them for comparison. A potency beside an inconclusive call is a rough fit, not a confirmed value. The source made the active and inactive calls. Calls follow the shape of the dose curve; as a rule, active = well fitted curve in the direction sought with a large enough effect; inconclusive = small, poorly fitted or top-dose-only effect, or another doubt; inactive = no such curve, though single readings can be large; an effect the other way counts as inactive or inconclusive.

Experiments:
[1] = Viability qHTS for spleen associated tyrosine kinase inhibitor (SYKi) naive MV4-11 cells (AID 1963823); conditions: MV4-11 AML viability, CellTiter-Glo luminescence, 72 h; series mostly up to 45 µM; also: nearly all actives have a fitted effect of over 40% in size
In short: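 SYKi-naive MV4-11 AML cells, 500 per well, were exposed to library compounds for 72 hr at 37 C, 5% CO2. Viability was then read by CellTiter-Glo luminescence after 10 min at room temperature.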

[2] = Viability qHTS for spleen associated tyrosine kinase inhibitor (SYKi) drug resistant MV4-11 cells (AID 1963824); also: nearly all actives have a fitted effect of over 35% in size
In short: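 CellTiter-Glo luminescence, read 10 min after reagent addition, reports viability after a 72 hr compound exposure. Cells are an MV4-11 line made resistant to SYK inhibition, seeded at 500 per well onto compound-containing plates.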

[3] = Cellular viability qHTS for adrenocortical cancer (ACC) cell line NCI-H295R (AID 1963990); conditions: CellTiter-Glo ATP luminescence, 48 h; series mostly up to 46.1 µM; also: nearly all actives have a fitted effect of over 60% in size
In short: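 CellTiter-Glo ATP luminescence, read 48 h after compound addition, measured viability of NCI-H295R adrenocortical cells grown serum-free with ITS. Final concentrations spanned up to 46 uM. Data normalized to DMSO and doxorubicin, fitted for IC50 and maximal response.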
Potency is read from the fitted curve at half-maximal effect; tags tell the direction and shape of the fitted curve.

| SMILES | Potency [1] | Potency [2] | Potency [3] |
| --- | --- | --- | --- |
| CCOC(=O)c1ccnc(CNCC(=O)N(CC)CCN(C)C)c1 | inconclusive: 16.4 µM [cytotoxic, partial curve] | inactive and inconclusive: 7.42 µM [cytotoxic, partial curve] | inconclusive: 17.8 µM [cytotoxic, partial curve, poor fit] |
| CCOC(=O)N[C@@H]1CC[C@@H]2[C@@H](C1)C[C@H]1C(=O)O[C@H](C)[C@H]1[C@H]2/C=C/c1ccc(-c2cccc(F)c2)cn1 | inconclusive: 16.6 µM [cytotoxic, partial curve] | active: 13.2 µM | inactive |
| CCCC[C@@H](C=O)NC(=O)[C@H](CC(C)C)NC(=O)OCc1ccccc1 | inconclusive: 37.2 µM [cytotoxic, partial curve, poor fit] | active: 18.6 µM | inconclusive: 25.1 µM [cytotoxic, single point] |
| Cc1c(Cl)cccc1Nc1ccccc1C(=O)O | inconclusive: 9.44 µM [cytotoxic, partial curve, poor fit] | inconclusive: 0.0042 µM [rising, full curve, poor fit] | inconclusive: 5.17 µM [cytotoxic, partial curve] |
| C/C(O)=C(\C#N)C(=O)Nc1ccc(C(F)(F)F)cc1 | inconclusive: 14.8 µM [cytotoxic, partial curve] | inconclusive: 16.6 µM [cytotoxic, partial curve, poor fit] | inconclusive: 14.1 µM [cytotoxic, partial curve, poor fit] |
| CCCCOc1cc(C(=O)OCCN(CC)CC)ccc1N | inactive and inconclusive: 4.1 nM [cytotoxic, full curve, poor fit] | inconclusive: 29.9 µM [cytotoxic, single point] | inactive |
| COC(=O)C(c1ccccc1Cl)N1CCc2sccc2C1 (stereo unspecified) | inconclusive: 33.5 µM [cytotoxic, partial curve, poor fit] | inactive | inactive |
| CC#Cc1cncc(-c2ccc3c(c2)[C@@]2(N=C(C)C(N)=N2)C2(CCC(OC)CC2)C3)c1 (stereo partly specified) | inconclusive: 13.2 µM [cytotoxic, partial curve] | inconclusive: 14.8 µM [cytotoxic, partial curve] | inactive |
| COC(=O)c1cc(S(N)(=O)=O)ccc1OC | inactive | inactive | inactive |
| CC(C)OC(=O)[C@H](C)N[P@](=O)(OC[C@H]1O[C@@H](n2ccc(=O)[nH]c2=O)[C@](C)(F)[C@@H]1O)Oc1ccccc1 | inconclusive: 10.5 µM [cytotoxic, single point] | inconclusive: 10.5 µM [cytotoxic, partial curve, poor fit] | inconclusive: 11.2 µM [cytotoxic, single point] |
| OC[C@@H](O)[C@@H](O)[C@H](O)[C@H](O)CO | inactive | inactive | inactive |
| COc1ccc2nc(NC(=O)Nc3ccccc3)sc2c1 | inconclusive: 18.8 µM [cytotoxic, single point] | inconclusive: 23.7 µM [cytotoxic, single point] | inconclusive: 29.1 µM [cytotoxic, single point] |
